Among the data in publication PMC11570452, “MOTS-c modulates skeletal muscle function by directly binding and activating CK2” (iScience, 2024) are binding values, retold here.

By UniProt entry, the sequences of proteins in these tests, tags left out.
UniProt P67870: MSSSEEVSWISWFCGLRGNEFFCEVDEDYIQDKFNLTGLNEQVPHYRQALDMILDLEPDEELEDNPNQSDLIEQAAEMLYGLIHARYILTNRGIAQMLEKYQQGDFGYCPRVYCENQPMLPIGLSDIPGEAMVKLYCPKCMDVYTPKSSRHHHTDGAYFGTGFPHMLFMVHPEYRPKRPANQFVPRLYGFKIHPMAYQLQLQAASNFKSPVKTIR

Results are given in words; binding and its absence hold for the method and conditions named. For some assays here: In cells and extracts the contact can be indirect. Some entries that bind do so weakly or less than the wild type.

Assay [1] concerns the target T1, CK2α, endogenous in mouse tissues (mouse (endogenous in C57BL/6J gastrocnemius muscle, epididymal fat, liver)) (UniProt Q60737).
T1 sequence: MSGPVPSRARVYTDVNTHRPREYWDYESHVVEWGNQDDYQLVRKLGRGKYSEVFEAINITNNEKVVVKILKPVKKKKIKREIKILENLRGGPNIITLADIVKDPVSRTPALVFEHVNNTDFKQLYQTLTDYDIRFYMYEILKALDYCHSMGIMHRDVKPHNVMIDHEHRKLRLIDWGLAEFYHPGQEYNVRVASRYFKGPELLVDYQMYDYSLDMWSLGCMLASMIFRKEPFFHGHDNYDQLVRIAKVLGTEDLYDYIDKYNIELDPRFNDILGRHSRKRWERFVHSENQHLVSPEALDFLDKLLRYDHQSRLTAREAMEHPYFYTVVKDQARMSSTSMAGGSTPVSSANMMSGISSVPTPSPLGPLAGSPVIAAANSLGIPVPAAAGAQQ
Briefly: co-IP; as a4, but lysate of liver of mice 30 min after MOTS-c (7.5 mg/kg) or none.

For assay [2], the target named is T1, CK2α, endogenous in mouse tissues (mouse (endogenous in C57BL/6J gastrocnemius muscle, epididymal fat, liver)). Briefly: co-IP; CK2α antibody on Dynabeads Protein G; RIPA lysate (2 mg protein) of gastrocnemius muscle and epididymal fat of mice 30 min after MOTS-c (7.5 mg/kg) or none; blot with MOTS-c antibody.
Assay [3] has as its target CK2 complex (Casein Kinase II; contains both CK2α and CK2β subunits) (UniProt P68400). Briefly: far-Western, overlay or dot blot; CK2 complex (0-1000 units), CK2α or CK2β (0-210 ng) dotted on nitrocellulose; MOTS-c 5 μg/mL in SuperBlock (PBS) flowed over, 30 min, room temperature; detected by MOTS-c antibody; both purified.
Assay [4] addresses CK2α (recombinant, GenScript) (UniProt P68400). The description is as above.
A further assay deals with CK2β (recombinant, IBL) (UniProt P67870). The description is as above.

Take MRWQEMGYIFYPRKLR [MOTS-c (mitochondrial open reading frame of the 12S ribosomal RNA type-c), wild type]: the binding result in assay [1] is “no binding (condition: in liver)”; in assay [2], “binds”; in assay [3], “binds”; in assay [4], “binds”; with CK2β (recombinant, IBL), “no binding (tested: 5 μg/mL)”.
